# The supplement of paper PMC12632987
# In all, about 4,500 sequences were measured (“median log2 fold change of GCK-ALFA target abundance (FLAG IP / Myc IP barcode read proportion)”: median about 0.078, lowest 2% from about -0.6 on). This is one part of the list.
# B1: GBRAP_184_5263 (protein)
# chain: AVLERVVEAENVEELIEKMEEIREEALASGADVIILLKVKELTKEMIDALFAQLKKLRDAGYTGRVTVGIDADLTEEMIDYVVEKADEAGVNVVLAISEE
# B2: GBRAP_160_4280 (protein)
# chain: GEKLKELAEEVEEDRDEILSLVDEISAEEIRTLAVTSIGSAIMEAIDLGVLTDEEEDELAAIRDELEEELDEAKDASPEEIKEIITEHFDKVIELLRKAA
# B3: GBRAP_159_3964 (protein)
# chain: MEEKLAAAAELAEAAGLSPEAREDVLLAVELYLEGESDGSVAAHLFHAVQRHGLTVEQVRAVAEFFKSLGLEEALELTAELLREAGLEEHAAAIREVLAE
# B4: GBRAP_160_4488 (protein)
# chain: SEKLEEAKEEVRRIIELAVEAILEEKTENKRAIAAAFAGEIAQTLKELGVVTEEEEDEALELAEEGMERMVEASEEGEEALREAARELERRLEEFLEKAS
# B5: GBRAP_139_3692 (protein)
# chain: SAEEEKIEEARRLTRRAVEEGEPALRELAEYLVSLSEEEQIKAAEAIGEVLLPLPFDEAEAILEGLIKILREEFGNEDLAEIVEAEANRTLALIAVREEA
# B6: GBRAP_166_4968 (protein)
# chain: MEEEIVKELKEYIDEKAEKMKTANEEEKLELLAEVAEKLGEAKKKGLSKENLKELVKYLIKEARKVGISDSQVYGALSIIADLDEEEIDILEEARKEVEK
# B7: GBRAP_80_6824 (protein)
# chain: MEEELEEVLKEIEEKDKEVAEIAKEIVEIARKLGVSLEVLLRYAKALLELLKKDKEAALKLAKETLEEVKEAAKKGDKEEVTAILAEGESDALLKVEELE
# B8: GBRAP_9_7127 (protein)
# chain: KKELVEKLKEVVEEMIEDISKVVPEVTEEMKEEFLKKVEELEKEALEDESLTPEEIKEKFKELVEEIKEEVKKIVDEELKKLVEAIALTALEEIDEIVEE
# B9: GBRAP_160_4595 (protein)
# chain: SEEEEKLLKELEEIAEEAIKLIEGETHEQRLVILRVMGGDILLELSESSLATDELEEKADEIIDELIETVESNPDLTEEEIKELIKEMLEKIKEAIKKES
# B10: GBRAP_125_3134 (protein)
# chain: GMAEDLEDLAIVARALGFSDDDVAEAVAIAAKHGFKGTLYAIMAALGYDEVADLVEKITEEEAIEVIREVAAEIRADPSLTPEEVVELIKKRLEEVIAKK
# B11: GBRAP_128_3272 (protein)
# chain: MNEEVVAFAKELMEKIKNSDEEEKREIAREIMERIKESSLEDAETMIEVIEELLPELSAEDLDILADEARKAIPELDPEKANLVAGLEVEALNQREELEE
# B12: GBRAP_160_4017 (protein)
# chain: SAEIEALIKEIEELIEEAIEMMKGETPEERLTIARGMFGDILQLIFESPEVSDETEDEIAKLLDEALKELEENKDKDYETWVEILEKLLKKIKALLEKDK
# B13: GBRAP_11_2835 (protein)
# chain: KKEKLKEIAEKAEEVAKELEELIASGNPTEEELEELREKVKELLKLAKELGDESLVKLAEIALEEIEKAIEDPENRLEHLERALAAVRVLEGQALLLYDE
# B14: GBRAP_11_2689 (protein)
# chain: KKEKLEEGAKLAEKGAELVERLLREGVDNEELLAELEKTLEELLKLAKKHASPASQKLTEDIKETWKRLLADPENAEEYARELLAGLRVLAGQYLLEIEE
# B15: GBRAP_52_6296 (protein)
# chain: MREEARKIAEELVELKKKGDEEGLEKKVKEIVEEKSKEFIKLIGEELARMAAESDEETQDIIFEVMELLADELIKGGYDEAFANDLLARVAAAAYQNELR
# B16: GBRAP_172_5000 (protein)
# chain: GVTLLELDLLGLSREEAVEKAVEAVEKTIKETGNDLVVAVVADDEETVDAVEEAAKKVAAEHGKEVTVVGEAYRSEEDRARVLAAAEAEKIDMEYEKEEE
# B17: GBRAP_14_3829 (protein)
# chain: MEEIEAVIEEAREDLIELFEEIVPEKAEELAEAVEEVFEELKRRIKETGNVEEAIEEARERLKEEAKKILADEPEEIRNLVLAAIDIEFAELEEEIEELL
# B18: GBRAP_35_5566 (protein)
# chain: SFDETTAEMVVNTIEALTEAVDDIPPEELKTITEQITKLAEKVIEEIKNNKEALKKILEALEKLAEALKKRGLDDPNVKAAYEAVEETIKKAKEAIKKAE
# B19: GBRAP_39_5669 (protein)
# chain: EKEEELELLVSYLEGVAAKYLYETGKSLEEALKEAKEILKKYAEEHPELKELVERLLKLADEKGEEAKLVAIGIAEKIKEGLPLEEIKELIEKAVEYFES
# B20: GBRAP_160_4468 (protein)
# chain: SATVRELVEELRREVEEELERTRDESPEQIATAVAVTIGSHLMEWSENGEISDEQEDVLIEAMDRVRELAREERDASPEEVIRRIREIVEEAARRILELS
# B21: GBRAP_184_5033 (protein)
# chain: KVLEKEIKAKNKEELEEKLKKLAEEVKGSKADLIVLLDIENPTKEKVKLAIEGLGAIKKAGYVSSVTIGFENELSEELTDVALETADKEGVKVVLPISDE
# B22: GBRAP_125_3123 (protein)
# chain: SRAADLAALAELLAALGLDAEDVAEAVALAAEFSIRGTLAAVARALGWEELADAIEKLTEEEARAVVREVVARIRAHPELTPEEVRALLLAVAREAVAAA
# B23: GBRAP_35_5608 (protein)
# chain: DSLKETAEMLVATIEDATLLVPEAPVDTLVAITNSLIESARALIKELTDDKEALEKVIEAMEKLLEALKKHHGDNPKAQEAIKRVEELIKEGRERLKAIK
# B24: GBRAP_128_3485 (protein)
# chain: SVEEAVERARELMERIKESSLEEVREIARELARLLGEADDEAREAITEVVLERLKELSAEKLEILADVLRELRPELDPLGAEQAAEIEVEALNEAEEKEE
# B25: GBRAP_35_5555 (protein)
# chain: DSDEEIIEMMTNTAEDALLTIDTIPFDTAFAIVEKIAKAALEILKKEKENVEGMKKLAEAVIEALEALIKRAKAEGAPQEKIDRLEKLLEEIKKELEKIK
# B26: GBRAP_184_5267 (protein)
# chain: MVKEFEIEASNEEEIKEKLEKIAEEVKDTKADLIISAKIENPTEEKIKTLMETLGKIKEAGYASKITVGIDSELSEEVIDLAFELADKYGINVTVALSEE
# B27: GBRAP_184_5307 (protein)
# chain: TVLEVTIEADDAETAIKQINAAAAAAKAAGAKLKLTLYLSNVDVEGFKKIADLLKELKDQGILEDAIVHVLDEKTEEEVDKLVKIADEAGVRLVVALSDE
# B28: GBRAP_52_6310 (protein)
# chain: SAARLRALAEELLALMRAGDREGARALAREAVATLSPEELLALARELARLAAEADEEELDALAELVDILEDVAEEAGVDEEVIAEMLGIVTTALYEAALR
# B29: GBRAP_52_6035 (protein)
# chain: MEERMRELARRIVELLLAGREEEARRLIREAVETLSEEELKLLGEELARLAREAAPEDLDAIMEAAFLLADALEEGGYDEVLADDLLARVAAAAVANLQA
# Biological target: GABARAP, O95166
# Sequence (O95166 whole entry, the tested form may be a part): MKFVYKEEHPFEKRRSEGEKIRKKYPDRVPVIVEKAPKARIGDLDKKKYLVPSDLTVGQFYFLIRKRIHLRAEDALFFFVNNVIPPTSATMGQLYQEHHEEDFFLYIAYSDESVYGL
# Assay: median log2 fold change of GCK-ALFA target abundance (FLAG IP / Myc IP barcode read proportion) (log2 ratio); each designed protein is fused to an ALFA-tag nanobody in HEK293 cells to bring the named protein to FLAG-tagged glucokinase (GCK); Myc marks an untargeted standard; higher = target protein stabilised (more abundant)
# Conditions: target protein: 3xFLAG-MCP-GCK-ALFA reporter; HEK293 landing pad (RPLP)
# In short: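 HEK293 landing-pad cells received a recombined binder library fused to the ALFA nanobody and were induced with 2 μg mL^−1 doxycycline, then transfected with a plasmid encoding a FLAG-tagged target and a Myc-tagged standard. Lysates were collected after 48 h for anti-FLAG and anti-Myc immunoprecipitation, and the circular RNA barcodes were reverse transcribed, amplified and sequenced. Target abundance for each binder is the median log2 ratio of FLAG to Myc barcode read proportions. Barcodes had to reach a proportion of at least 10^−7 in both replicates, each binder needed at least 3 barcodes per replicate, a pseudocount of 10^−6 was applied, and the two replicates were pooled.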
row,Binder,median log2 fold change
1,B1,0.101
2,B2,-0.0896
3,B3,0.184
4,B4,0.139
5,B5,0.234
6,B6,0.155
7,B7,0.257
8,B8,0.275
9,B9,-0.253
10,B10,-0.575
11,B11,0.177
12,B12,-0.103
13,B13,0.198
14,B14,0.195
15,B15,0.199
16,B16,0.114
17,B17,-0.798
18,B18,0.0525
19,B19,0.128
20,B20,0.24
21,B21,-0.000909
22,B22,-0.572
23,B23,-0.472
24,B24,0.0482
25,B25,0.0546
26,B26,0.0951
27,B27,-0.0236
28,B28,-0.0944
29,B29,-0.612
